Data on 58 molecules can be found in paper PMC4336329 (PLoS ONE, 2015).

Out of some 310,000 compounds screened, about 14,000 (4.5%) showed an effect of 50% or more. The effect is printed as a negative number. The list shows a part of the results.
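Further: peak tail current of the secondary pulse compared with the same well before compound.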

Sequence of human ether-à-go-go-related gene (hERG) potassium channel (Q12809 whole entry, looked up): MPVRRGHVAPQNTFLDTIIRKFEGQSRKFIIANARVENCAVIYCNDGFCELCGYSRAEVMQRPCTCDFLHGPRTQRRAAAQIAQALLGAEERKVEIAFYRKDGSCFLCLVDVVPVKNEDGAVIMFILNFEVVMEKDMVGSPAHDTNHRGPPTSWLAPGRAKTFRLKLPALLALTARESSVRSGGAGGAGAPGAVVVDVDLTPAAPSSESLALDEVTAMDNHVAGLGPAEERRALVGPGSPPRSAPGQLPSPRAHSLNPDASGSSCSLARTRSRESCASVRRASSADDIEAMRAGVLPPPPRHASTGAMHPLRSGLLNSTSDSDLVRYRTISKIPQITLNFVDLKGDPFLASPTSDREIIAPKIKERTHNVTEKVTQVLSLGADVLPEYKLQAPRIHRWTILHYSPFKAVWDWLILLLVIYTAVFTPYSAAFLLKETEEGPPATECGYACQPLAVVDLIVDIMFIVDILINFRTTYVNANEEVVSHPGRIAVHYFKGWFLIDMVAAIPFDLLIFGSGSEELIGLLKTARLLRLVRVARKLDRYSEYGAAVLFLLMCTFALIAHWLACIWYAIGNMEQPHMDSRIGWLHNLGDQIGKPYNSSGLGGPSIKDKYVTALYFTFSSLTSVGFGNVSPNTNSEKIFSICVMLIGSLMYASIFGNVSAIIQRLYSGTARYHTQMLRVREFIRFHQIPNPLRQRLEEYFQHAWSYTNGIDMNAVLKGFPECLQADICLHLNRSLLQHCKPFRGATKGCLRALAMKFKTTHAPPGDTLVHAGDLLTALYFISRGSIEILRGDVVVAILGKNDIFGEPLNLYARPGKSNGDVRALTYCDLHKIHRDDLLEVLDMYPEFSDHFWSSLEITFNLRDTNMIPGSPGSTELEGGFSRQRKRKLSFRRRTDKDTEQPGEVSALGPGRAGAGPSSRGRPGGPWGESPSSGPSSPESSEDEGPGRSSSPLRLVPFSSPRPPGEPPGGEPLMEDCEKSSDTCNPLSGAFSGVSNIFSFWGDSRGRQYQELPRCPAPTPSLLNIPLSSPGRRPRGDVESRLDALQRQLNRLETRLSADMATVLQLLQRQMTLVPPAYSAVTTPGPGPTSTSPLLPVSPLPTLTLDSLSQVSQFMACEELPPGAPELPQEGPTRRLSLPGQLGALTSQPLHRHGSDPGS

The test addresses human ether-à-go-go-related gene (hERG) potassium channel (human, UniProt Q12809). Briefly: primary screen, population patch clamp on CHO cells stably expressing hERG.
With `Cc1c(NC(=S)NC(=O)c2cc3ccccc3o2)cccc1C(=O)O`, the “hERG current change (%, negative = inhibition) at 10uM” value amounted to 17.3%. With `Cc1cccc(NC(=O)CC23CC4CC(C2)CC(n2nnc(C)n2)(C4)C3)c1`, the “hERG current change (%, negative = inhibition) at 10uM” value was -20.5%. In the case of `COc1cc(C(=O)Oc2cc(C)[nH]c(=O)c2[N+](=O)[O-])cc(OC)c1OC`, the “hERG current change (%, negative = inhibition) at 10uM” value was found to be 1.42%.

As to `Cc1cc(OCCCN2CCCC2)ccc1Cl`, the “hERG current change (%, negative = inhibition) at 10uM” value is on record as -42.9%. On to `CC(C)CC(=O)Nc1ccc2oc(-c3ccncc3)nc2c1`, for which the “hERG current change (%, negative = inhibition) at 10uM” value turned out to be 3.7%.

As for `CCN(CC(=O)NCc1ccc(Cl)cc1)C(=O)CCOc1ccccc1C`, the “hERG current change (%, negative = inhibition) at 10uM” value is -71%.

As to `CC1(C)CC(=O)c2c(O)cc(OCC(=O)N3CCN(c4ccccc4)CC3)cc2O1`, the “hERG current change (%, negative = inhibition) at 10uM” value was -29.8%. As for `Cn1cc(/C=C2\SC(=O)NC2=S)c2ccccc21`, the “hERG current change (%, negative = inhibition) at 10uM” value was -4.48%. Regarding `CCN(CC)c1ccc(NC(=O)c2cccc(OC)c2)c(C)c1`, the “hERG current change (%, negative = inhibition) at 10uM” value is recorded as 2.11%. For `CC1CCN(S(=O)(=O)c2c[nH]c(=O)[nH]c2=O)CC1`, the “hERG current change (%, negative = inhibition) at 10uM” value is on record as 6.09%. As to `CC(=O)COC(=O)CCc1nc2ccccc2[nH]c1=O`, the “hERG current change (%, negative = inhibition) at 10uM” value is given as -1.18%.

Consider `CC(C)(C)c1ccc(/C=N/N2CCN(c3ccccn3)CC2)cc1`, for which the “hERG current change (%, negative = inhibition) at 10uM” value was 2.36%.

As for `COC(=O)CC1(C(=O)OC)Oc2ccc(Br)cc2C(=O)N1c1cc(Cl)cc(Cl)c1` (stereo not shown), the “hERG current change (%, negative = inhibition) at 10uM” value is on record as 6.94%. With `COCCNC(=O)COc1ccc(C)cc1C(=O)c1cc(C#N)c(=O)n(C2CC2)c1` the figure was -21.9%. The value for `CN(C(=O)COC(=O)C1CCN(S(=O)(=O)c2cccs2)CC1)c1ccccc1` was -14.1%; that for `O=c1[nH]cnc2c1sc1nc(C(F)F)cc(-c3ccccc3)c12` was 2.52%; that for `COc1ccc2oc3c(c2c1)NC(=O)CN=C3c1ccccc1` was 14.9%. As to `O=C(O)c1ccccc1NC(=S)NC(=O)c1cccc2ccccc12`, the “hERG current change (%, negative = inhibition) at 10uM” value is on record as 14.3%. On to `Brc1ccc(N=NNc2ccccc2)cc1`, for which the “hERG current change (%, negative = inhibition) at 10uM” value was 19%. `O=C(Nc1cccc(S(=O)(=O)NC2=NCCC2)c1)c1cc(=O)[nH]c2ccccc12`: the “hERG current change (%, negative = inhibition) at 10uM” value is on record as 9.37%. The value for `COc1ccccc1Nc1nc(N)nc(CSC(=S)N2CCOCC2)n1` was -9.92%; that for `O=C(CCc1nnc2ccc(NCc3ccco3)nn12)Nc1cccc(F)c1` was 10.5%.

In the case of `Cc1cc(C)c(S(=O)(=O)c2ccc(F)cc2C)c(Cl)n1`, the “hERG current change (%, negative = inhibition) at 10uM” value stood at 2.43%. The value for `Nn1c(SCC(=O)Nc2ccc3c(c2)OCO3)nnc1-c1ccncc1` was -6.46%; that for `CCS(=O)(=O)NCC(c1ccco1)N1CCN(c2ccccc2)CC1` (stereo not shown) was -2.3%; that for `COc1ccc(NC(=O)c2ccc(S(=O)(=O)N(C)C)cc2)cc1OC` was -5.96%.

As to `CCOc1ccccc1NC(=O)c1cc(C(=O)c2cc(Br)ccc2O)coc1=N`, the “hERG current change (%, negative = inhibition) at 10uM” value worked out at 23.1%. Turning to `COc1ccc(CCN(C)C(=O)c2ccc(S(=O)(=O)Nc3ccccc3F)cc2)cc1OC`, the “hERG current change (%, negative = inhibition) at 10uM” value is -10.1%. With `O=C(c1ccccc1)N(Cc1ccc(F)cc1)C1CCS(=O)(=O)C1` (stereo not shown) the figure was 0.909%. For `O=C(Cc1coc2ccc3ccccc3c12)NCc1cccs1`, the “hERG current change (%, negative = inhibition) at 10uM” value was found to be 12.7%. With `CC(C)(C)C1CCC(OCC(O)CN2CCN(c3ccccn3)CC2)CC1.Cl` (stereo not shown), the “hERG current change (%, negative = inhibition) at 10uM” value is on record as -0.157%. Take `COc1ccc(OC)c(S(=O)(=O)Nc2c(C)n(C)n(-c3ccccc3)c2=O)c1`: the “hERG current change (%, negative = inhibition) at 10uM” value is listed as -9.06%. For the molecule `CS(=O)(=O)Nc1ccc2c(c1)C(=O)OC2`, the “hERG current change (%, negative = inhibition) at 10uM” value is on record as 13.2%. With `CC(=O)Nc1nc(SCCCc2ccccc2)n[nH]1`, the “hERG current change (%, negative = inhibition) at 10uM” value is -19.8%. Regarding `O=C(Nc1cccnc1)C1(c2ccccc2)CCCC1`, the “hERG current change (%, negative = inhibition) at 10uM” value was found to be 4.11%. With `COc1ccc(N=Cc2cc(Cl)ccc2O)cc1Cl` the figure was 4.17%; with `Cc1c(CCCC(=O)O)sc(N)c1C(=O)c1cccc(C(F)(F)F)c1`, 4.45%. `COCCNc1ccc([N+](=O)[O-])cc1C(=O)Nc1cccc(C)n1`: the “hERG current change (%, negative = inhibition) at 10uM” value is recorded as -62.7%.

As for `O=C1Nc2ccccc2N=C(c2ccccc2)c2ccccc21`, the “hERG current change (%, negative = inhibition) at 10uM” value is reported as -15.6%. Turning to `CCc1noc(C)c1C(=O)N(CC)CC(=O)NCc1ccc(Cl)cc1`, the “hERG current change (%, negative = inhibition) at 10uM” value came out at 2.57%.

Regarding `Cc1ccc(C)c(NC(=O)CSc2sc3c(O)cc(=O)[nH]c3c2C#N)c1`, the “hERG current change (%, negative = inhibition) at 10uM” value is on record as 6.37%. `O=C(COC(=O)CNC(=O)c1ccccc1)Nc1cccc(Br)c1`: the “hERG current change (%, negative = inhibition) at 10uM” value is given as 1.68%. Turning to `O=C(NCCc1ccccc1)C1CCC(Cn2c(=O)c3ccccc3n(Cc3cccnc3)c2=O)CC1` (stereo not shown), the “hERG current change (%, negative = inhibition) at 10uM” value was -37.3%. For the molecule `CCc1cc(-c2n[nH]c(C)c2-c2nc(C)cs2)c(O)cc1OC`, the “hERG current change (%, negative = inhibition) at 10uM” value came out at 1.52%. With `CCC(=O)Nc1cccc(NC(=O)c2cccc([N+](=O)[O-])c2C)c1` the figure was -1.36%; with `COc1ccnc2c1c(=O)n(Cc1cccc(Cl)c1)c(=O)n2C`, -3.57%. For `CSc1sccc1/C=N/O`, the “hERG current change (%, negative = inhibition) at 10uM” value is given as 18.6%. With `CC(C)Oc1ccccc1OCCN(C)C.O=C(O)C(=O)O` the figure was 6.22%; with `COc1ccc(OCC(=O)NC2CCCCCCC2)cc1`, 5.97%; with `COC(C(=O)Nc1ccc(F)cc1F)c1ccccc1` (stereo not shown), -2.33%. With `COc1cc(CCC(=O)OCC(=O)Nc2cccc(S(=O)(=O)N(C)C)c2)cc(OC)c1OC` the figure was -3.79%; with `CC(=O)NC(Cc1ccc(F)cc1)C(=O)NC1CCN(C(=O)Nc2ccc(F)cc2)CC1` (stereo not shown), -5%. On to `CC1Cc2ccccc2N1C(=O)CCn1c(=O)oc2ccccc21` (stereo not shown), for which the “hERG current change (%, negative = inhibition) at 10uM” value was 0.667%. `Cc1cc(C)n2nc(C(=O)OCC(=O)c3cc(C)n(CC4CCCO4)c3C)nc2n1` (stereo not shown): the “hERG current change (%, negative = inhibition) at 10uM” value turned out to be 13.7%. For the molecule `Cc1oc(-c2cc(F)cc(F)c2)nc1CN1CCSCC1`, the “hERG current change (%, negative = inhibition) at 10uM” value is 1.04%. With `COc1ccc2c(c1)n([O-])c1c([n+]2=O)CCC1`, the “hERG current change (%, negative = inhibition) at 10uM” value is on record as 0.55%. Take `COc1ccc(NC(=O)[C@H](C)NC(=O)C2CCN(S(=O)(=O)c3ccc(C)cc3)CC2)cc1`: the “hERG current change (%, negative = inhibition) at 10uM” value was determined as 5.52%. With `COc1ccc2[nH]cc(CCn3ccc(=O)c(C)c3C)c2c1`, the “hERG current change (%, negative = inhibition) at 10uM” value came out at 16.8%.
